# Test results as given in patent US20260055169A1 (PARAGON THERAPEUTICS, published 2026).
# Experiments:
# [1] = molecular target: T1, Recombinant human serum albumin (human, UniProt P02768); assay: SPR, VHH-Fc captured on anti-human Fc, human albumin as analyte, pH 7.4
# T1 construct: Analyte in SPR, 0-500 nM
# [2] = molecular target: T2, Recombinant mouse serum albumin (mouse, UniProt P07724 25-608); assay: SPR, Fc fusion captured on anti-human Fc, mouse albumin as analyte, pH 6.0
# T2 construct: Analyte in SPR, 0-500 nM
# [3] = molecular target: T1, Recombinant human serum albumin; assay: SPR, VHH-Fc captured on anti-human Fc, human albumin as analyte, pH 6.0
# [4] = molecular target: T3, Recombinant rat serum albumin (rat, UniProt P02770 25-608); assay: SPR, Fc fusion captured on anti-human Fc, rat albumin as analyte, pH 6.0
# T3 construct: Analyte in SPR, 0-500 nM
# [5] = molecular target: T1, Recombinant human serum albumin; assay: SPR, Fc-VHH captured on anti-human Fc, human albumin as analyte, pH 6.0
# [6] = molecular target: T1, Recombinant human serum albumin; assay: SPR, Fc-VHH captured on anti-human Fc, human albumin as analyte, pH 7.4
# T2 sequence (P07724 25-608 limits assumed): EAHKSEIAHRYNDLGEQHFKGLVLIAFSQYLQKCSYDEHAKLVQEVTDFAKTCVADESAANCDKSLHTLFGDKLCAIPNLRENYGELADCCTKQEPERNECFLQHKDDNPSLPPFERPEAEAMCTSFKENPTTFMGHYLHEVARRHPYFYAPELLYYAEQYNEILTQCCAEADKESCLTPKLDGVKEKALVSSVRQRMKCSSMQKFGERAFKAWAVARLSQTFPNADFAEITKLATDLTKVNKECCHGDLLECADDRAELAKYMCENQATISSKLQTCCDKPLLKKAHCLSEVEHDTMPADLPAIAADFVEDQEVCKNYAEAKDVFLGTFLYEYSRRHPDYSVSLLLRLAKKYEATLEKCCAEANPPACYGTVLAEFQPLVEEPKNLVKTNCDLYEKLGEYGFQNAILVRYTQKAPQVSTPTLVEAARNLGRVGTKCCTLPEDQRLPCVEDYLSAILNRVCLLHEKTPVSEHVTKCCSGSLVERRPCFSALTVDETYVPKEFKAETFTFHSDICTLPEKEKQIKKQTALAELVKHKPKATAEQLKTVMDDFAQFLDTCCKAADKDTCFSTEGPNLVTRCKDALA
# T3 sequence (P02770 25-608 limits assumed): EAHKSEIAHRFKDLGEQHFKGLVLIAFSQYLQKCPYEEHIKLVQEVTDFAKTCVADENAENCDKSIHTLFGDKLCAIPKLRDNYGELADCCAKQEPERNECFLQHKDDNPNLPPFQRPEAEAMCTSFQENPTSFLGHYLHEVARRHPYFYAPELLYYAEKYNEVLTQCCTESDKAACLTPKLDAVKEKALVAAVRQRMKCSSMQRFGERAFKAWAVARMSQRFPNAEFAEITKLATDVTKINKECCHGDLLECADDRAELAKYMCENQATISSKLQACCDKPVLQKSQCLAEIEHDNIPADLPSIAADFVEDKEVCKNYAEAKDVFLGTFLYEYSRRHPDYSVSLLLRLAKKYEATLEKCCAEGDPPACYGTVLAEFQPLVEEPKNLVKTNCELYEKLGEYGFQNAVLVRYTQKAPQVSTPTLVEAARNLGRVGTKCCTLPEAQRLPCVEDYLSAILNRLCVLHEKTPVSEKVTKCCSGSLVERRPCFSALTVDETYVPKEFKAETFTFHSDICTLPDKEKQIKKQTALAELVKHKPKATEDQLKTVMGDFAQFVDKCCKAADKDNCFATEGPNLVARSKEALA
Binder,Kd [1],koff [1],kon [1],koff [3],kon [3],Kd [3],Kd [5],koff [5],kon [5],Kd [6],koff [6],kon [6],further results
VHH 1-Fc fusion (SEQ ID NO: 5) (Fc fusion) QVQLVESGGGLVQPGGSLRLSCAASGFTFGQFGMSWVRQAPAKGPERVSAISSDGSGTIYADSVKGRFTISRDNAKNTLYLQMNSLKPEDTAVYYCTIGSSTTPSGPGQGTQVTVSSGGGGS[letters of human IgG1 Fc left out],10.7 nM,0.00861 s⁻¹,803000 M⁻¹ s⁻¹,0.0122 s⁻¹,1.11e+06 M⁻¹ s⁻¹,–,–,–,–,–,–,–,Kd [2]: 17.5 nM; koff [2]: 0.0015 s⁻¹; kon [2]: 85500 M⁻¹ s⁻¹
VHH 1-3-Fc fusion (SEQ ID NO: 25) (Fc fusion) QVQLVESGGGLVQPGGSLRLSCAASGFTFGQFGMSWVRQAPAKGPERVSAISSSGSGTIYADSVKGRFTISRDNAKNTLYLQMNSLKPEDTAVYYCTIGSSTTPSGPGQGTQVTVSSGGGGS[letters of human IgG1 Fc left out],7.61 nM,0.00462 s⁻¹,607000 M⁻¹ s⁻¹,0.0176 s⁻¹,468000 M⁻¹ s⁻¹,37.5 nM,–,–,–,–,–,–,–
VHH 1-5-Fc fusion (SEQ ID NO: 27) (Fc fusion) QVQLVESGGGLVQPGGSLRLSCAASGFTFGQFGMSWVRQAPAKGPERVSAISSDASGTIYADSVKGRFTISRDNAKNTLYLQMNSLKPEDTAVYYCTIGSSTTPSGPGQGTQVTVSSGGGGS[letters of human IgG1 Fc left out],6.21 nM,0.00407 s⁻¹,656000 M⁻¹ s⁻¹,0.0115 s⁻¹,503000 M⁻¹ s⁻¹,22.8 nM,–,–,–,–,–,–,–
VHH 1-6-Fc fusion (SEQ ID NO: 28) (Fc fusion) QVQLVESGGGLVQPGGSLRLSCAASGFTFGQFGMSWVRQAPAKGPERVSAISSDSSGTIYADSVKGRFTISRDNAKNTLYLQMNSLKPEDTAVYYCTIGSSTTPSGPGQGTQVTVSSGGGGS[letters of human IgG1 Fc left out],6.32 nM,0.00421 s⁻¹,666000 M⁻¹ s⁻¹,0.00714 s⁻¹,715000 M⁻¹ s⁻¹,9.99 nM,–,–,–,–,–,–,–
VHH 1-8-Fc fusion (SEQ ID NO: 30) (Fc fusion) EVQLVESGGGLVQPGGSLRLSCAASGFTFGQFGMSWVRQAPGKGLEWVSAISSDGSGTIYADSVKGRFTISRDNSKNTLYLQMNSLRAEDTAVYYCTIGSSTTPSGPGQGTTVTVSSGGGGS[letters of human IgG1 Fc left out],11.3 nM,0.00164 s⁻¹,146000 M⁻¹ s⁻¹,0.0137 s⁻¹,206000 M⁻¹ s⁻¹,66.7 nM,–,–,–,–,–,–,–
VHH 1-9-Fc fusion (SEQ ID NO: 31) (Fc fusion) EVQLVESGGGLVQPGGSLRLSCAASGFTFGQFGMSWFRQAPGKEREFVSAISSDGSGTIYADSVKGRFTISRDNSKNTLYLQMNSLRAEDTAVYYCTIGSSTTPSGWGQGTTVTVSSGGGGS[letters of human IgG1 Fc left out],–,–,–,–,–,–,–,–,–,–,–,–,binding result [3]: no binding (tested: 500 nM)
VHH 1-10-Fc fusion (SEQ ID NO: 32) (Fc fusion) EVQLVESGGGLVQPGGSLRLSCAASGFTFGQFGMSWFRQAPGKEREFVSAISSDGSGTIYADSVKGRFTISRDNSKNTLYLQMNSLRAEDTAVYYCTIGSSTTPSGPGQGTTVTVSSGGGGS[letters of human IgG1 Fc left out],–,–,–,0.01 s⁻¹,416000 M⁻¹ s⁻¹,24 nM,–,–,–,–,–,–,–
"VHH 4-Fc fusion (SEQ ID NO: 145) (Fc fusion, Llama VHH-G4S-wild-type IgG1 Fc) QVQLQESGGGLVQPGGSLRLSCAASGFTFGSFGMSWVRQAPGKGPEWVSAIDSGGADTRYAESVKGRFTISRDNAKSTLYLQMNSLKPEDTAVYYCTIGRSSSRGSQGTQVTVSSGGGGS[letters of human IgG1 Fc left out]",–,–,–,–,–,–,–,–,–,–,–,–,Kd [2]: 168 nM; koff [2]: 0.0262 s⁻¹; kon [2]: 156000 M⁻¹ s⁻¹; Kd [4]: 2290 nM; koff [4]: 0.0942 s⁻¹; kon [4]: 41100 M⁻¹ s⁻¹
"VHH 8-Fc fusion (SEQ ID NO: 149) (Fc fusion, Llama VHH-G4S-wild-type IgG1 Fc) EVQLVESGGGLVQPGGSLRLSCAASGFTFGSFGMSWVRQAPGKGPEWVSAIDSSGADTRYAESVKGRFTISRDNAKKTLYLQMNSLKPEDTAVYYCTIGRSTSRRNQGTQVTVASGGGGS[letters of human IgG1 Fc left out]",–,–,–,–,–,–,–,–,–,–,–,–,Kd [2]: 166 nM; koff [2]: 0.0231 s⁻¹; kon [2]: 139000 M⁻¹ s⁻¹; Kd [4]: 1560 nM; koff [4]: 0.132 s⁻¹; kon [4]: 84700 M⁻¹ s⁻¹
"VHH 9-Fc fusion (SEQ ID NO: 150) (Fc fusion, Llama VHH-G4S-wild-type IgG1 Fc) EVQLVESGGGLVQPGGSLRLSCAASGFTFGSFGMSWVRQAPGKGPEWVSAIDSGGADTRYAESVKGRFTISRDNAKKTLYLQMNSLKPEDTAVYYCTIGRSTSRGSQGTQVTVSSGGGGS[letters of human IgG1 Fc left out]",–,–,–,–,–,–,–,–,–,–,–,–,Kd [2]: 159 nM; koff [2]: 0.0252 s⁻¹; kon [2]: 158000 M⁻¹ s⁻¹; Kd [4]: 1570 nM; koff [4]: 0.0941 s⁻¹; kon [4]: 59800 M⁻¹ s⁻¹
"VHH 12-Fc fusion (SEQ ID NO: 153) (Fc fusion, Llama VHH-G4S-wild-type IgG1 Fc) QVQLVESGGGLVQPGGSLRLSCAASGFTFGSFGMSWVRQAPGKGPEWVSAIDSGGGDTRYSDSVKGRFAISRDNAKKTLYLQMNSLKPEDTAAYYCTIGRSTSRGSQGTQVTVSSGGGGS[letters of human IgG1 Fc left out]",–,–,–,–,–,–,–,–,–,–,–,–,Kd [2]: 190 nM; koff [2]: 0.0291 s⁻¹; kon [2]: 153000 M⁻¹ s⁻¹; Kd [4]: 12600 nM; koff [4]: 0.135 s⁻¹; kon [4]: 10700 M⁻¹ s⁻¹
"VHH-Fc control (SEQ ID NO: 33) (Fc fusion, also called VHH-Fc fusion control; control VHH-Fc) EVQLLESGGGLVQPGGSLRLSCAASGFTFRSFGMSWVRQAPGKGPEWVSSISGSGSDTLYADSVKGRFTISRDNSKNTLYLQMNSLRPEDTAVYYCTIGGSLSRSSQGTLVTVSSGGGGS[letters of human IgG1 Fc left out]",–,–,–,–,–,–,–,–,–,–,–,–,Kd [4]: 461 nM
VHH 9-5-Fc fusion (SEQ ID NO: 201) (Fc fusion) EVQLVESGGGLVQPGGSLRLSCAASGFTFGSFGMSWVRQAPGKGLEWVSAIDSGGADTRYAESVKGRFTISRDNSKNTLYLQMNSLRAEDTAVYYCTIGRSASRGGQGTTVTVSSGGGGS[letters of human IgG1 Fc left out],1.01 nM,0.000158 s⁻¹,156000 M⁻¹ s⁻¹,0.00638 s⁻¹,230000 M⁻¹ s⁻¹,27.7 nM,–,–,–,–,–,–,–
Fc-VHH 1 fusion (SEQ ID NO: 34) (Fc fusion) [letters of human IgG1 Fc left out]GGGSQVQLVESGGGLVQPGGSLRLSCAASGFTFGQFGMSWVRQAPAKGPERVSAISSDGSGTIYADSVKGRFTISRDNAKNTLYLQMNSLKPEDTAVYYCTIGSSTTPSGPGQGTQVTVSS,–,–,–,–,–,–,65.7 nM,0.0194 s⁻¹,295000 M⁻¹ s⁻¹,36.8 nM,0.00961 s⁻¹,261000 M⁻¹ s⁻¹,–
Fc-VHH 1-1 fusion (SEQ ID NO: 35) (Fc fusion) [letters of human IgG1 Fc left out]GGGSEVQLLESGGGLVQPGGSLRLSCAASGFTFGQFGMSWVRQAPGKGPERVSAISSDGSGTIYADSVKGRFTISRDNSKNTLYLQMNSLRPEDTAVYYCTIGSSTTPSGPGQGTLVTVSS,–,–,–,–,–,–,203 nM,0.0143 s⁻¹,70500 M⁻¹ s⁻¹,149 nM,0.0213 s⁻¹,143000 M⁻¹ s⁻¹,–
Fc-VHH 1-5 fusion (SEQ ID NO: 39) (Fc fusion) [letters of human IgG1 Fc left out]GGGSQVQLVESGGGLVQPGGSLRLSCAASGFTFGQFGMSWVRQAPAKGPERVSAISSDASGTIYADSVKGRFTISRDNAKNTLYLQMNSLKPEDTAVYYCTIGSSTTPSGPGQGTQVTVSS,–,–,–,–,–,–,106 nM,0.0167 s⁻¹,157000 M⁻¹ s⁻¹,90.7 nM,0.00778 s⁻¹,85800 M⁻¹ s⁻¹,–
Fc-VHH 1-6 fusion (SEQ ID NO: 40) (Fc fusion) [letters of human IgG1 Fc left out]GGGSQVQLVESGGGLVQPGGSLRLSCAASGFTFGQFGMSWVRQAPAKGPERVSAISSDSSGTIYADSVKGRFTISRDNAKNTLYLQMNSLKPEDTAVYYCTIGSSTTPSGPGQGTQVTVSS,–,–,–,–,–,–,82.7 nM,0.00598 s⁻¹,72200 M⁻¹ s⁻¹,71.6 nM,0.00403 s⁻¹,56300 M⁻¹ s⁻¹,–
Fc-VHH 9 fusion (SEQ ID NO: 208) (Fc fusion) [letters of human IgG1 Fc left out]GGGSEVQLVESGGGLVQPGGSLRLSCAASGFTFGSFGMSWVRQAPGKGPEWVSAIDSGGADTRYAESVKGRFTISRDNAKKTLYLQMNSLKPEDTAVYYCTIGRSASRGSQGTQVTVSS,–,–,–,–,–,–,82.5 nM,0.0133 s⁻¹,161000 M⁻¹ s⁻¹,4.88 nM,0.00136 s⁻¹,280000 M⁻¹ s⁻¹,–
Fc-VHH 9-1 fusion (SEQ ID NO: 209) (Fc fusion) [letters of human IgG1 Fc left out]GGGSEVQLLESGGGLVQPGGSLRLSCAASGFTFGSFGMSWVRQAPGKGPEWVSAIDSGGADTRYAESVKGRFTISRDNSKNTLYLQMNSLRPEDTAVYYCTIGRSASRGSQGTLVTVSS,–,–,–,–,–,–,167 nM,0.388 s⁻¹,2.33e+06 M⁻¹ s⁻¹,318 nM,0.0132 s⁻¹,41400 M⁻¹ s⁻¹,–
Fc-VHH 20-1 fusion (SEQ ID NO: 217) (Fc fusion) [letters of human IgG1 Fc left out]GGGSEVQLLESGGGLVQPGGSLRLSCAASGFSFGSFGMSWVRQAPGKGPEWVSAIDSGGADTRYAETVKGRFTISRDNSKNTLYLQMNSLRPEDTAVYYCTIGRSTSRGSQGTLVTVSS,–,–,–,–,–,–,182 nM,0.0261 s⁻¹,143000 M⁻¹ s⁻¹,306 nM,0.0606 s⁻¹,198000 M⁻¹ s⁻¹,–
